# From the supplement of paper PMC3334620
# Whole data set: some 33,000 sequences, median “E-score (-0.5 to 0.5)” near -0.021, cut for the highest 2% near 0.32. Some of the results follow.
# Target: T1, Zap1 (UniProt P47043)
# T1 sequence: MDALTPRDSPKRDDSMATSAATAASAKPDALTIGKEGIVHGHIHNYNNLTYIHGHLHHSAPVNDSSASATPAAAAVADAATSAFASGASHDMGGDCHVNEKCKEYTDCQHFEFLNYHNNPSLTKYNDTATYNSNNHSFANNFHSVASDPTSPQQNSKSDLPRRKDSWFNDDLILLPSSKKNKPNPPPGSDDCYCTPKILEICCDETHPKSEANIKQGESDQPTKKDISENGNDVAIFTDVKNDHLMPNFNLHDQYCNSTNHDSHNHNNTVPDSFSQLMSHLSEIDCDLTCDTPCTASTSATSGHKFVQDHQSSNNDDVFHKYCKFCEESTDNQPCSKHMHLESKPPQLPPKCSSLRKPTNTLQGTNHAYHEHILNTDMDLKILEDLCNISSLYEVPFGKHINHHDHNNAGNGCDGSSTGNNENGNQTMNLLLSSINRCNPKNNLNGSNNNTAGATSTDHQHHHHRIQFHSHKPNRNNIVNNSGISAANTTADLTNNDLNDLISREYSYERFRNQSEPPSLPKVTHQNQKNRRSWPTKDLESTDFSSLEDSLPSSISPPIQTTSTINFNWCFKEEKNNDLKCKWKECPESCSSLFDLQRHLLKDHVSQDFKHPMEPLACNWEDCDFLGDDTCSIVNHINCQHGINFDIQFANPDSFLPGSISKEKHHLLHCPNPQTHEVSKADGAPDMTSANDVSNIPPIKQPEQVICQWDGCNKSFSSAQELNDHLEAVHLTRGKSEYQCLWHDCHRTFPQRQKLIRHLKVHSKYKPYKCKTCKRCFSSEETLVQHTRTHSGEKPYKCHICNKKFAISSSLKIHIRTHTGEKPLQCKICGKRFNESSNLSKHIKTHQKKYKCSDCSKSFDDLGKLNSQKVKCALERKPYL
# Assay: PBM E-score (8-mer binding enrichment) (E-score (-0.5 to 0.5)); higher = stronger / more preferred TF binding; most listed sequences are background and not binding sites
# Details: protein concentration: 200 nM; construct: GST-full length
# How it was run: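 Yeast transcription factors carrying a GST tag, as full-length proteins or DNA-binding domains, were produced by PURExpress in vitro transcription/translation. About 100-200 nM protein was applied to universal all-10-mer Agilent arrays, double-stranded by primer extension on fresh or once-stripped slides. Bound protein was detected with fluorescent anti-GST, and scans were normalised with masliner. The Universal PBM Analysis Suite gave each ungapped eight-base word, pooled with its reverse complement, an E-score, a modified Wilcoxon-Mann-Whitney statistic.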
row,Sequence,PBM E-score
1,GATTACGC,0.0927
2,ACCCGGGG,0.289
3,TAGTGGGA,-0.179
4,CCTACGCC,-0.292
5,AGAGCGAG,-0.14
6,ACACACCA,0.137
7,GTAGACGA,-0.0824
8,ATCACGCC,-0.0547
9,ATAGAAGA,-0.083
10,GACCAACA,0.21
11,GCATCATA,0.039
12,ACATAGGT,0.296
13,GACGATAC,-0.0336
14,TCATAGAA,0.144
15,GAAAGTAC,0.109
16,ACACTTGA,-0.0766
17,CCACATAC,0.109
18,AGAGCCCC,-0.221
19,AACCACTA,0.369
20,GCTTAACC,0.327
21,GGACGGGA,-0.214
22,GAGTAAGA,-0.0163
23,ATCACGGC,0.0529
24,CGCTTTTA,0.129
25,GTTCCTGA,-0.0294

row,Sequence,PBM E-score
1,AATATGAT,0.239
2,AGTGACGC,-0.0868
3,ACGATCGA,-0.0556
4,AGTGCAGC,-0.109
5,CTAGAGGC,-0.0764
6,CCGTCTCG,-0.164
7,GTGCCGGA,-0.119
8,ATGACAGG,-0.0703
9,AAATGCAT,0.00383
10,AGATGCTA,-0.189
11,ACACGTGG,-0.0751
12,CTGTCGGA,-0.182
13,AACATGGG,0.0706
14,GGCATAAC,0.127
15,ACAAGTCA,-0.157
16,TACAGTGA,0.0125
17,CCAATCGC,0.0782
18,AGCAAGGC,-0.193
19,TCCAGCCA,-0.147
20,ACCCTTGG,0.365
21,TGCAGGCA,-0.237
22,ATTACGTC,-0.052
23,CGCATAAC,0.175
24,TATTCCGA,0.169
25,AACTTGCT,-0.17

row,Sequence,PBM E-score
1,ACCTGGAG,0.184
2,TACTGCAA,0.123
3,GACTTCCC,-0.108
4,CGAAACAC,0.00608
5,CAGGCCTC,-0.296
6,GCTCGACA,-0.205
7,CACGATTC,-0.0355
8,AACAAGGC,-0.178
9,CGCCAAAC,0.0461
10,GGAGGGAA,-0.213
11,GAACCTAA,0.194
12,CAGACAGG,-0.0636
13,GGCGATCA,-0.283
14,CCTATACC,0.0497
15,AGATTGGA,-0.0546
16,GAAGATGC,-0.163
17,ACGCGGTG,-0.148
18,AATACAAA,0.259
19,CCGATATC,-0.042
20,AAGGGCTG,0.0148
21,AATTGCCA,0.0114
22,ATTGTCCG,0.0743
23,CCATAGCG,-0.0384
24,TATCACCA,-0.101
25,AGCCAGCT,-0.262

row,Sequence,PBM E-score
1,AACACCTC,-0.0287
2,CGCATCGA,0.0417
3,CTCGATGA,-0.0822
4,GGTACAAA,0.279
5,CTCGCCCA,-0.0989
6,TAAAGCAA,0.0041
7,CATTGCAA,-0.0747
8,AATGCCGT,-0.0988
9,AGGACGAA,-0.00668
10,ATTGGGGA,-0.128
11,AATCACTA,-0.0627
12,CATGAGCC,-0.0413
13,CGCAGTAG,-0.0911
14,AGCCTTCA,-0.0688
15,CTAGTGAC,0.133
16,TGCAGCCA,-0.0893
17,GTCAGAGA,-0.0865
18,TTATGGAA,0.153
19,ATTGACGA,0.0488
20,ATGCAAAC,0.0841
21,ACTTTTAC,0.243
22,CCCATAAA,0.161
23,CAGCCTGA,-0.0954
24,AGCACGGC,-0.151
25,ACAGGAGT,0.0529

row,Sequence,PBM E-score
1,ATCCAATC,-0.134
2,GAGTCCCC,-0.156
3,ACTTAGAA,-7e-05
4,TACGCTGA,-0.0505
5,AGAAATAA,0.27
6,AATGGTGA,0.0455
7,GCCATAGA,-0.0985
8,CGGCGAAA,0.00754
9,AATCTTAA,-0.0159
10,AGACTTAA,-0.011
11,CGGGCTGA,-0.226
12,AAACAATG,0.0924
13,AATAAATG,0.145
14,CGCCTGTA,-0.332
15,ATCCGGAG,0.0525
16,GTGGGCTA,-0.00859
17,CATGTCTA,-0.118
18,AGAAGTCG,-0.233
19,ACATGCAT,-0.0789
20,GTGGATGA,0.014
21,CCCACCGG,0.222
22,ACTGGTCC,-0.101
23,CGTAGGAG,-0.158
24,ATAACTAA,0.14
25,CACGTCAG,-0.301

row,Sequence,PBM E-score
1,ATGTTTAC,0.173
2,AAACCTTG,0.0789
3,TCCATCAA,-0.0843
4,GGAGGTGA,0.13
5,AGTCAACC,-0.0294
6,GATGCTTA,-0.132
7,GGCATTAA,-0.131
8,GGCTGCAC,-0.229
9,AAGTATCT,-0.107
10,GCGCAGAA,-0.00572
11,CGCTCAAC,-0.028
12,ATAATAAT,0.109
13,ACATTCGA,0.0222
14,ACCCCCGC,-0.0913
15,AGCAGGAT,-0.0934
16,GAACAGAC,-0.0787
17,GTTGGGAA,0.0568
18,AGCCGGGC,-0.32
19,GGGATATA,-0.0315
20,GAGCAGGC,-0.247
21,AGCCCCGA,-0.135
22,TAGGCCAA,0.0266
23,ATCATAAG,0.0701
24,GTGGGTAA,0.0319
25,ACTGAAGT,-0.0118

row,Sequence,PBM E-score
1,GACAGGCA,-0.167
2,ATTCGATC,0.0445
3,CACGCGCC,-0.181
4,AAAGTATT,0.046
5,CGGTGTAA,-0.0163
6,GGTATAGA,0.102
7,CTCACGCA,0.112
8,ATCTTCTC,-0.0544
9,CTGCGCAG,-0.325
10,CCTGGATC,-0.253
11,CCATGCCC,-0.0153
12,ACTTGTTA,0.055
13,ACCCGCAA,0.234
14,CGAACCTA,0.00467
15,ATTATAAC,0.309
16,CTGGGCCA,-0.244
17,CAACGATA,0.101
18,ATGCCAAC,0.0793
19,AAATCTAG,-0.0883
20,GTGTTAGA,0.0246
21,GCGACTGA,-0.227
22,AGGAGTCG,-0.275
